The whole screen tested about 94,000 compounds, of which about 4,000 (4.3%) were called active. Inconclusive results, whose numbers are uncertain, are shown with a selection of clear calls. Calls follow the shape of the dose curve; as a rule, active = well fitted inhibition curve with a large enough effect; inconclusive = small, poorly fitted or top-dose-only effect; inactive = no such curve, though single readings can be large or run the other way. Potencies of inconclusive entries are doubtful fits and often do not repeat.
test: Cytotoxic Profiling in NIH 3T3 Cell Line of Diverse Libraries Using Quantitative High-Throughput Screening; conditions: NIH 3T3 viability, CellTiter-Glo ATP luminescence, 48-72 h; series mostly up to 96.7 µM; also: nearly all actives have a fitted effect of over 55% in size
Procedure, shortened: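 Viability of NIH 3T3 cells after 48 or 72 hr compound treatment at 37 °C was assessed by CellTiter-Glo, with luminescence imaged following a 10 min room-temperature step.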
Potency is read from the fitted curve at half-maximal effect; tags tell the direction and shape of the fitted curve.

Compound	Potency
COCc1nc(C2CCCN(C(=O)Cc3ccccc3C)C2)no1 (stereo not given)	inactive
CCOc1ccccc1CN1C[C@@H]2C(=O)N(CCN3CCc4ccccc4C3)C(=O)[C@@H]2C1	inactive
O=C(c1ccccc1Br)N1CC(n2cc(COc3ccc(F)cc3)nn2)C1	inconclusive: 79.4 µM [inhibitor, partial curve, poor fit]
Cc1ccc(N2CC(c3noc(-c4cc5ccccc5[nH]4)n3)CC2=O)cc1 (stereo not given)	inconclusive: 39.8 µM [inhibitor, partial curve, poor fit]
COc1cc2c(cc1-c1nccn1-c1ccc(NC(C)=O)cc1)OCCO2	inconclusive: 28.2 µM [inhibitor, full curve, poor fit]
CN1C(=O)[C@@H]2C[C@@H](CN2C2CCCC2)Oc2ccccc21	inconclusive: 31.6 µM [inhibitor, partial curve, poor fit]
O=C(O)Cc1cccn1-c1ccc(Cl)cc1	inactive
O=C1Nc2ccccc2CC12CCN(Cc1ccc(F)cc1)C2 (stereo not given)	inactive
Nc1nc(CCC(=O)N2CCn3nc(C(O)c4ccccc4)cc3C2)cs1 (stereo not given)	inactive
COc1cccc(C(=O)N2CCN(CCn3nc4n(c3=O)CCCC4)CC2)c1	inactive
COc1cccc(CNC(=O)Cn2c(-c3cccc(Cl)c3)nc(C)c(CCO)c2=O)c1	inconclusive: 44.7 µM [inhibitor, partial curve]
CN1CCOc2c(C(=O)NCc3cnn(C)c3)cc(-c3cccnc3)cc21	active: 35.5 µM
CC(=O)NC1(C)CCN(Cc2ccccc2-c2cccc(C(C)=O)c2)C1 (stereo not given)	inconclusive: 63.1 µM [inhibitor, partial curve, poor fit]
COc1ccc(NC(=O)c2nc3sccn3c2-c2cccnc2)cc1	inconclusive: 100 µM [inhibitor, partial curve, poor fit]
Cc1oc(-c2ccc3ccccc3c2)nc1CN1CCNC(=O)C1	inconclusive: 79.4 µM [inhibitor, single point]
Cc1ccccc1C(=O)N1CCN(C(=O)c2nnn3c2COC(c2ccc(Cl)cc2)C3)CC1 (stereo not given)	inconclusive: 50.1 µM [inhibitor, partial curve, poor fit]
Cc1ccc(C(=O)N2CCN(c3cc(C(F)(F)F)ncn3)CC2)c(C)c1	inconclusive: 44.7 µM [inhibitor, partial curve, poor fit]
COCCNC(=O)c1nc(-c2cc(Cl)cc(Cl)c2)c2ccccn12	inconclusive: 50.1 µM [inhibitor, partial curve, poor fit]
CCOCCOC1CCN(C(=O)c2nn(C)c3ccccc23)CC1	inactive
COc1cccc(CC(=O)N2CCC3(CC2)CC(OCC2CC2)CCO3)c1 (stereo not given)	inconclusive: 50.1 µM [inhibitor, partial curve, poor fit]

Compound	Potency
COc1ccc(C(=O)N2CCCC(c3nc(-c4ccccc4)no3)CCNC(=O)CC2)c(OC)n1 (stereo not given)	inactive
COC(=O)N(C)Cc1cccc(N2CCN(C(=O)OC(C)(C)C)CC2)c1	inconclusive: 35.5 µM [inhibitor, partial curve, poor fit]
CCCc1noc(-c2cn(C3CCN(C(=O)c4ccc(C)c(F)c4)CC3)nn2)n1	inconclusive: 28.2 µM [inhibitor, full curve]
Cc1ccccc1S(=O)(=O)N1C[C@@H](Oc2cccnc2)C[C@H]1C(N)=O	inactive
CC(C)C1=NOC2(CCN(Cc3ccc(F)cc3)CC2)C1	inconclusive: 44.7 µM [inhibitor, partial curve, poor fit]
O=C(Cc1ccc(F)cc1)N1CCC2(CCC(=O)N(CC3CC3)CC2)CC1	inconclusive: 44.7 µM [inhibitor, partial curve, poor fit]
O=C(NCc1ccccc1F)C1CCCCN1Cc1ccc(-c2cccs2)cc1 (stereo not given)	inconclusive: 39.8 µM [inhibitor, partial curve, poor fit]
Cc1nn(-c2ccccc2)c2c1C(C)N(C1CCN(C(=O)c3cccc(C(F)(F)F)c3)CC1)C2=O (stereo not given)	inconclusive: 44.7 µM [inhibitor, partial curve, poor fit]
COc1ccc(Cn2c(C3CCN(C(=O)c4ccc5c(c4)OCO5)CC3)n[nH]c2=O)cc1	inactive
CCOc1cc(=O)n2c(c1C(=O)NCc1cccc(F)c1)CCCCC2	inactive
CNC(=O)[C@@H]1C[C@H](n2cc(CNC(=O)Nc3ccc(Cl)cc3C)nn2)CN1	inactive
Cc1ccc(C2Cn3nnc(C(=O)N4CCN(C(=O)c5cc(Cl)ccc5F)CC4)c3CO2)cc1 (stereo not given)	inconclusive: 7.94 µM [inhibitor, full curve, poor fit]
CC(C)c1nc(-c2ccc(OC3CCN(C(=O)c4n[nH]c5ccccc45)C3)cc2)no1 (stereo not given)	inconclusive: 31.6 µM [inhibitor, partial curve]
CCCNC(=O)C(NC(=O)c1cccc(C)c1)C1CCN(C(=O)CCc2ccccc2)CC1 (stereo not given)	inconclusive: 56.2 µM [inhibitor, partial curve, poor fit]
COc1ccccc1C(=O)N1CCCn2nc(C)c(-c3ccccc3-c3ccccc3)c21	inconclusive: 35.5 µM [inhibitor, full curve]
CN(C)c1ccc(CN2CCCC3(C2)C(=NC2CCCC2)NC(=O)N3c2cccnc2)cc1 (stereo not given)	inconclusive: 22.4 µM [inhibitor, single point]
O=C(c1cccs1)C1CCCN(C(=O)COc2ccc(F)cc2F)C1 (stereo not given)	inconclusive: 39.8 µM [inhibitor, full curve, poor fit]
COC(=O)[C@@H]1Cc2ncn(Cc3ccc(Cl)cc3)c2CN1S(=O)(=O)c1ccc(C#N)cc1	inconclusive: 89.1 µM [inhibitor, single point]
O=C(NCc1ccc(F)c(F)c1)C1CCCN(Cc2cccc(-c3cccs3)c2)C1 (stereo not given)	inconclusive: 44.7 µM [inhibitor, partial curve, poor fit]
CCN(CC)C(=O)C(C)[C@@H]1CC[C@@]2(C)CC[C@H](NC(=O)c3ccccc3)[C@@H](C)[C@@H]2[C@H]1O (stereo not given in full)	inactive
